Over roughly 4,500 sequences, “median log2 fold change of GCK-ALFA target abundance (FLAG IP / Myc IP barcode read proportion)” has its median near 0.078; the lowest 2% begin near -0.6. The list shows a part of the results.
B1: GBRAP_84_7009 (protein)
chain: SRREERARLIRELVANATPELLIALATELAILGDGEGETLLLSELIERDPEVAAEALDRSTEVLLEGREAEARAELEALIAAASPEVQALVRRLLALARE
B2: GBRAP_160_4158 (protein)
chain: KEKVEELIKEIKEIFEEMKEMIEGETIEQRQVIISGYFGEIIMLIFESDVVSEEVEDLAVKLEDELVETLKANPDLTLEEIKELIDEVEKKILEKIKESA
B3: GBRAP_52_6110 (protein)
chain: MREEARRFVRELLALVKAGRLEEARARIRELVERWNDEELRILGEALAELAKEAAPEDLDAVWRLAEMIAEAMEEAGKDEVLADDLLSRVAAALYERTLK
B4: GBRAP_53_6395 (protein)
chain: AEAEIKEGVAELEALIAEVEADPTLDAAEVAKRAGELLKKLAEAGAPEEELTALAKRLAEAVAAKGLGVEVSTALAKTAAEAGREEVAYVFIEAAVEDLE
B5: GBRAP_52_6102 (protein)
chain: MREELRKKVREILELVREGKLEEARKKIKELVESLNDEEIRLVADEIAELAREAAPEDLDAVWTLAEMFAEELEKAGKPEVLVDYLLASTAAALYEREQA
B6: GBRAP_184_5148 (protein)
chain: TTLRAAIEAATVEEALAKAREVFAEAKAAGADLTLHVFAEGFSVEEIAALAAALKAAADEAGLTNATIILHVEADEEEADEVLAAADAAGVRAVIALLEP
B7: GBRAP_160_4789 (protein)
chain: SERVERAAALIREELERALELSEGESPEERVNIFDVELGAAIMELIEEGLLDDEEEEVVAEARDELVAAVRANPDLTPEELRALAEAAVERVRAALEALE
B8: GBRAP_9_7113 (protein)
chain: MEVDKEVLKKAVEEAEKDLKKLAEDLENEKVKEIVEEAIKELKKLTEIEGITLEELEEKLDEIVEKAVKRAKEEVSEEIAKALEAELLTEKEDILEAVEE

biological target: GABARAP, O95166; experiment: median log2 fold change of GCK-ALFA target abundance (FLAG IP / Myc IP barcode read proportion) (log2 ratio); each designed protein is fused to an ALFA-tag nanobody in HEK293 cells to bring the named protein to FLAG-tagged glucokinase (GCK); Myc marks an untargeted standard; higher = target protein stabilised (more abundant); settings: target protein: 3xFLAG-MCP-GCK-ALFA reporter; HEK293 landing pad (RPLP)
How it was run: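 Sequencing of reverse-transcribed, amplified circular RNA barcodes from anti-FLAG and anti-Myc immunoprecipitates provided the readout for an ALFA-nanobody-fused binder library recombined into HEK293 landing-pad cells. Those cells were induced with 2 μg mL^−1 doxycycline, transfected with a plasmid expressing a FLAG-tagged target and a Myc-tagged standard, and lysed after 48 h. Target abundance is the per-binder median log2 ratio of FLAG to Myc barcode read proportions. Only barcodes at a proportion of ≥10^−7 in both replicates and binders with ≥3 barcodes per replicate were kept, with a 10^−6 pseudocount added before the two replicates were pooled.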

Chain of GABARAP, O95166 (O95166 whole entry, the tested form may be a part): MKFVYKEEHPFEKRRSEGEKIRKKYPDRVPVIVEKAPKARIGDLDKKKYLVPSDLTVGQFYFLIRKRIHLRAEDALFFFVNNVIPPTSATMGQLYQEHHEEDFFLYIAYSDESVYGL

Binder	median log2 fold change
B1	-0.262
B2	-0.126
B3	0.0953
B4	0.239
B5	0.197
B6	0.038
B7	0.205
B8	0.305

— the supplement of paper PMC12632987
